SMILES strings stand for the structures. Where a name gives a salt, the structure may show the parent alone. Whole data set: some 2,800 compounds, median “cell viability relative to vehicle” near 0.98, cut for the lowest 2% near 0.45. The list shows a part of the results.

The subject of this test is NCI-H2228 alectinib-DTP. As to the kind of experiment: cell viability relative to vehicle (fraction of vehicle); NCI-H2228 is an ALK-positive lung cancer line and DTP means drug-tolerant persister; higher = less growth inhibition. The note with it: 100 nM; treatment time 6 days. Summed up:
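Each value is viability relative to vehicle-treated cells, measured as ATP with the CellTiter-Glo 3D Cell Viability Assay. Parental NCI-H2228 cells and drug-tolerant persisters (1000 nM targeted drug, 13 days) in 384-well plates received the 3114-agent TargetMol anti-cancer compound library at 100 nM, or DMSO, and were read 6 days later.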
`COc1cc2c(Oc3ccc(NC(=O)C4(C(=O)Nc5ccc(F)cc5)CC4)cc3F)ccnc2cc1OCCCN1CCOCC1` [Foretinib] displayed a cell viability of 0.882.
The same measure for `Nc1ccccc1S(N)(=O)=O` [2-Aminobenzenesulfonamide]: 1.05; for `CC1=NN(c2ccccc2)C(=O)C1` [Edaravone]: 1.1.
Consider `N#C/C(=C\c1cn(-c2ccccc2)c2ccccc12)C(=O)O`, for which the cell viability worked out at 0.942.
`CCN(CC)CCNC(=O)c1cc(Cl)c(N)cc1OC` [Metoclopramide hydrochloride] returned a cell viability of 1.13.
`CN1CCN(c2cc(-c3ccccc3)nc(N)n2)CC1` displayed a cell viability of 1.09.
As for `CCCCCNC(=O)N1CCC(CN(Cc2ccc(Cl)cc2)Cc2ccc([N+](=O)[O-])s2)C1` (stereo unspecified), the figure is 0.856; as for `Oc1ccc(/C=C/c2cc(O)cc(O)c2)cc1` [Resveratrol], 0.907.
As for `Cc1ncc(CCCN(C)C)cc1Nc1ncc2c(n1)-c1ccc(C(F)(F)F)cc1NC(=S)C2`, the figure is 0.677.
The same measure for `CCN(CC)CCNC(=O)c1c(C)[nH]c(/C=C2\C(=O)Nc3ccc(F)cc32)c1C` [Sunitinib Malate]: 0.987; for `COc1ccc([C@@H]2OC[C@H]3[C@@H]2CO[C@@H]3c2ccc3c(c2)OCO3)cc1OC` [Fargesin]: 1.11.
In the case of `OCCOCCN1CCN(Cc2cccc(Oc3ccccc3)c2)CC1`, the cell viability came to 1.12.
On to `C=C1C(=O)[C@]23[C@H](O)[C@H]1CC[C@H]2[C@@]12CO[C@]3(O)[C@@H](O)[C@@H]1C(C)(C)CC[C@@H]2O` [Oridonin], for which the cell viability turned out to be 0.983.
Consider `CCOc1cc2ncc(C#N)c(Nc3ccc(F)c(Cl)c3)c2cc1NC(=O)/C=C/CN(C)C` [Pelitinib], for which the cell viability came to 0.507.
The same measure for `Cc1ncc(NC(=O)c2cccc(C(F)(F)F)c2)cc1-c1cnc(OC2CCOCC2)c(N2CCOCC2)c1`: 0.969.
The same measure for `Cc1cc(/C=C/C#N)cc(C)c1Nc1ccnc(Nc2ccc(C#N)cc2)n1` [Rilpivirine]: 0.883; for `O=S(=O)(NCCSSCCNS(=O)(=O)c1cc(Cl)ccc1Cl)c1cc(Cl)ccc1Cl`: 0.965; for `CCOc1ccc(Nc2nc(-c3c(C)nc4ccccn34)cs2)cc1`: 0.587.
Compound `Cc1cc(=O)[nH]c(=S)[nH]1` [Methylthiouracil] registered a cell viability of 1.
`CC[C@]1(O)C[C@H]2CN(CCc3c([nH]c4ccccc34)[C@@](C(=O)OC)(c3cc4c(cc3OC)N(C=O)[C@H]3[C@@](O)(C(=O)OC)[C@H](OC(C)=O)[C@]5(CC)C=CCN6CC[C@]43[C@@H]65)C2)C1` [Vincristine sulfate] registered a cell viability of 0.679.
The same measure for `NC[C@@H]1O[C@H](O[C@H]2[C@@H](O)[C@H](O[C@@H]3[C@@H](O)[C@H](N)C[C@H](N)[C@H]3O[C@H]3O[C@H](CO)[C@@H](O)[C@H](O)[C@H]3N)O[C@@H]2CO)[C@H](N)[C@@H](O)[C@@H]1O` [Paromomycin Sulfate]: 1.02.
As for `Nc1nc(CC(=O)Nc2ccc(CCNC[C@H](O)c3ccccc3)cc2)cs1` [Mirabegron], the figure is 1.2; as for `COCCNCc1ccc(-c2cc3nccc(Oc4ccc(NC(=O)C5(C(=O)Nc6ccc(F)cc6)CC5)cc4F)c3s2)nc1` [Sitravatinib], 0.99; as for `CN1[C@@H]2CC[C@H]1C[C@@H](OC(=O)c1c[nH]c3ccccc13)C2` [Tropisetron hydrochloride], 0.887.
`CN[C@@H](C)C(=O)N[C@H]1CN(C(=O)CC(C)C)CC[C@H]2CC[C@@H](C(=O)NC(c3ccccc3)c3ccccc3)N2C1=O` had a cell viability of 1.01.
Consider `Cn1cnc2[nH]c(=O)[nH]c(=O)c21` [7-Methylxanthine], for which the cell viability was found to be 1.11.
The same measure for `CC(C(=O)O)c1ccc(-c2ccccc2)c(F)c1` (stereo unspecified) [Flurbiprofen]: 1.04.
As for `Cc1cc(O)c2c(c1)C(=O)c1cccc(O)c1C2=O` [Chrysophanic Acid], the cell viability came out at 1.03.
As for `COc1cc2c(N3CCN(C(=O)Nc4ccc(OC(C)C)cc4)CC3)ncnc2cc1OCCCN1CCCCC1` [Tandutinib], the figure is 0.986; as for `CC1CNC(=O)NC1=O` (stereo unspecified) [Dihydrothymine], 1.12; as for `COc1ccc2c(c1)Nc1ccccc1S2` [2-Methoxyphenothiazine], 1.03.
`O=C(OCC(O)CO)c1ccccc1Nc1ccnc2cc(Cl)ccc12` (stereo unspecified) [Glafenine] registered a cell viability of 1.14.
Compound `O=c1ccc2cc(O)c(O)cc2o1` [Esculetin] returned a cell viability of 1.01.
As for `Cc1c(C)c(NCC(=O)N(C)C2CCN(Cc3ccc(C(N)=O)cc3)CC2)c(C)c(C)c1N`, the figure is 0.837; as for `CN(C)CCN1C(=O)c2cccc3cc(NC(N)=O)cc(c23)C1=O`, 0.954; as for `O=C(Nc1cccc(C(F)(F)F)c1)Nc1cc(S(=O)(=O)NC2CC2)ccc1-c1ccsc1`, 0.946.
Compound `O=C(Nc1cc(Oc2cc(F)c(NC(=O)C3(C(=O)Nc4ccc(F)cc4)CC3)cc2F)ccn1)C1CC1` [Altiratinib] had a cell viability of 0.896.
The same measure for `O=C1c2c(O)cccc2C([C@@H]2O[C@H](CO)[C@@H](O)[C@H](O)[C@H]2O)c2cc(CO)cc(O)c21` (stereo partly specified) [Aloin]: 0.921.
Consider `CO/N=C(\C(=O)N[C@@H]1C(=O)N2C(C(=O)O)=C(CSc3nnnn3C)CS[C@H]12)c1csc(N)n1` [Cefmenoxime hydrochloride], for which the cell viability turned out to be 1.08.
For the compound `CC(NC(=O)C(Cc1ccccc1)NC(=O)OCc1ccccc1)C(=O)CF` (stereo unspecified), the cell viability worked out at 0.979.
The same measure for `C=CCc1cccc(/C=N/NC(=O)CN2CCN(Cc3ccccc3)CC2)c1O`: 0.898.
`COc1ccc(CCC(=O)O)cc1OC` [3,4-Dimethoxyhydrocinnamic acid]: the cell viability was 0.856.
The same measure for `CC(C(=O)O)c1ccc2c(c1)[nH]c1ccc(Cl)cc12` (stereo unspecified) [Carprofen]: 0.915.
For `O=C(CN1CCN(C(=O)c2ccco2)CC1)Nc1cc(C(F)(F)F)ccc1Cl`, the cell viability came out at 0.974.
As for `Nc1nc2[nH]cnc2c(=S)[nH]1` [Thioguanine], the figure is 0.829; as for `CC(C)c1cc2c(c(O)c1O)[C@@]13CCCC(C)(C)[C@@H]1C[C@@H]2OC3=O` [Carnosol], 1.16.
As for `C=CC(=O)Nc1cc(Nc2ncc(C(=O)Nc3cc(NC(=O)c4cc(OC)c(OC)c(OC)c4)ccc3C)c(NC)n2)ccc1C`, the figure is 1.14; as for `N#CC(=C(O)c1ccc(Cl)cc1Cl)c1nc2ccccc2c(=O)[nH]1` [Ciliobrevin A], 0.874; as for `COc1cc2c(=O)c(-c3ccc(O)cc3)coc2cc1O` [Glycitein], 1.14.
The same measure for `Cn1cc(-c2cc3c(N4CCN(c5ncc([C@@](C)(N)c6ccc(F)cc6)cn5)CC4)ncnn3c2)cn1` [Avapritinib]: 0.938; for `CN(C)CC(=O)Nc1ccc2[nH]c(=O)c3ccccc3c2c1`: 0.96.
`CNC(=O)c1cc(Oc2ccc(NC(=O)Nc3ccc(Cl)c(C(F)(F)F)c3)c(F)c2)ccn1` [Regorafenib]: the cell viability turned out to be 0.892.
As for `CC(C)(C)NCC(O)COc1cccc2c1CCC(=O)N2` (stereo unspecified) [Carteolol hydrochloride], the figure is 1.05; as for `O=C(Nc1ccccc1-c1cn2c(CN3CCNCC3)csc2n1)c1cnc2ccccc2n1` [SRT1720 hydrochloride], 0.916; as for `CCCC(CCC)C(=O)Nc1ccn([C@@H]2O[C@H](CO)[C@@H](O)C2(F)F)c(=O)n1`, 1.02.
As for `N#Cc1cnc(Nc2cc(NC[C@H]3CNCCO3)c(C(F)(F)F)cn2)cn1`, the figure is 0.997; as for `O=C(O)c1cc(/N=N/c2ccc(O)c(C(=O)O)c2)ccc1O` [Olsalazine disodium], 1; as for `CC(=O)NCCCS(=O)(=O)O` [Acamprosate calcium], 1.03.
The same measure for `COc1ccc2c(c1OC)C(=O)O[C@@H]2[C@H]1c2c(cc3c(c2OC)OCO3)CCN1C` [Noscapine hydrochloride]: 1.03.
With `CC(C)=CCc1c(O)ccc(C(=O)/C=C/c2ccc(O)cc2)c1O` [Isobacachalcone], the cell viability is 1.01.
Take `C[C@]1(O)C[C@@H](c2nc(-c3ccc4ccc(-c5ccccc5)nc4c3)c3c(N)nccn32)C1` [Linsitinib]: the cell viability was 0.606.
As for `C(=C\c1ccccc1)/CN1CCN(C(c2ccccc2)c2ccccc2)CC1` [Stugeron], the figure is 1.15.
In turn, `COc1ccc(C[C@H]2COC(=O)[C@@H]2Cc2ccc(O[C@@H]3O[C@H](CO)[C@@H](O)[C@H](O)[C@H]3O)c(OC)c2)cc1OC` [Arctiin] showed a cell viability of 0.889.
Turning to `Oc1cc(O)c2c(c1)O[C@H](c1ccc(O)c(O)c1)[C@H](O)C2` [Epicatechin], the cell viability was determined as 0.952.
As for `COC(=O)C1=CO[C@@H](O[C@@H]2O[C@H](CO)[C@@H](O)[C@H](O)[C@H]2O)[C@H]2[C@@H]1[C@H](O)C[C@]2(C)OC(C)=O` [8-O-Acetylshanzhiside methyl ester], the figure is 0.897; as for `CN1CCC(=C2c3ccccc3CCc3cccnc32)CC1` [Azatadine Maleate], 0.959; as for `COc1ccc2c(c1)c(CC(=O)O)c(C)n2C(=O)c1ccc(Cl)cc1` [Indometacin], 1.02.
The same measure for `CC(C)C[C@H](NC(=O)[C@@H](NC(=O)c1cccc(-c2ccccc2)n1)[C@@H](C)O)B(O)O` [Delanzomib]: 0.301; for `CNC(=O)c1cc(Oc2ccc(NC(=O)Nc3cc(C(C)(C)C)nn3-c3ccc4ncccc4c3)c(F)c2)ccn1`: 1.02.
The same measure for `OC[C@H]1O[C@H](O[C@]2(CCl)O[C@H](CCl)[C@@H](O)[C@@H]2O)[C@H](O)[C@@H](O)[C@H]1Cl` [Sucralose]: 0.957; for `CCC/N=C1\S/C(=C\c2ccc(OC[C@H](O)CO)c(Cl)c2)C(=O)N1c1ccccc1C` [Ponesimod]: 1.21.
As for `CC(C)OC(=O)N1CCC(Oc2ncnc3c2cnn3-c2ccc(S(C)(=O)=O)cc2F)CC1`, the cell viability turned out to be 0.961.
Regarding `Cc1ccc(C2Nc3ccccc3-n3c(-c4ccccc4)c4c(=O)n(C)c(=O)n(C)c4c32)o1` (stereo unspecified), the cell viability came out at 1.04.
As for `O=C(Nc1ccccc1C(=O)NC1CCCCNC1=O)c1cc2ccccc2s1` (stereo unspecified), the figure is 0.882; as for `O=C1N[C@](c2ccc(N3CCOCC3)cc2)(c2ccsc2)CC(O)=C1Sc1ccccc1Cl`, 0.925.
As for `COc1cc2nccc(Oc3ccc(NC(=O)Nc4cc(C)on4)c(Cl)c3)c2cc1OC` [Tivozanib], the figure is 1.12.

(Values after the supplement of paper PMC10600219.)
